About 2,200 (0.71%) of roughly 310,000 compounds showed an effect of 50% or more. Effects have a minus sign here. Some of the results follow.

Sequence of human ether-à-go-go-related gene (hERG) potassium channel (Q12809 whole entry, looked up): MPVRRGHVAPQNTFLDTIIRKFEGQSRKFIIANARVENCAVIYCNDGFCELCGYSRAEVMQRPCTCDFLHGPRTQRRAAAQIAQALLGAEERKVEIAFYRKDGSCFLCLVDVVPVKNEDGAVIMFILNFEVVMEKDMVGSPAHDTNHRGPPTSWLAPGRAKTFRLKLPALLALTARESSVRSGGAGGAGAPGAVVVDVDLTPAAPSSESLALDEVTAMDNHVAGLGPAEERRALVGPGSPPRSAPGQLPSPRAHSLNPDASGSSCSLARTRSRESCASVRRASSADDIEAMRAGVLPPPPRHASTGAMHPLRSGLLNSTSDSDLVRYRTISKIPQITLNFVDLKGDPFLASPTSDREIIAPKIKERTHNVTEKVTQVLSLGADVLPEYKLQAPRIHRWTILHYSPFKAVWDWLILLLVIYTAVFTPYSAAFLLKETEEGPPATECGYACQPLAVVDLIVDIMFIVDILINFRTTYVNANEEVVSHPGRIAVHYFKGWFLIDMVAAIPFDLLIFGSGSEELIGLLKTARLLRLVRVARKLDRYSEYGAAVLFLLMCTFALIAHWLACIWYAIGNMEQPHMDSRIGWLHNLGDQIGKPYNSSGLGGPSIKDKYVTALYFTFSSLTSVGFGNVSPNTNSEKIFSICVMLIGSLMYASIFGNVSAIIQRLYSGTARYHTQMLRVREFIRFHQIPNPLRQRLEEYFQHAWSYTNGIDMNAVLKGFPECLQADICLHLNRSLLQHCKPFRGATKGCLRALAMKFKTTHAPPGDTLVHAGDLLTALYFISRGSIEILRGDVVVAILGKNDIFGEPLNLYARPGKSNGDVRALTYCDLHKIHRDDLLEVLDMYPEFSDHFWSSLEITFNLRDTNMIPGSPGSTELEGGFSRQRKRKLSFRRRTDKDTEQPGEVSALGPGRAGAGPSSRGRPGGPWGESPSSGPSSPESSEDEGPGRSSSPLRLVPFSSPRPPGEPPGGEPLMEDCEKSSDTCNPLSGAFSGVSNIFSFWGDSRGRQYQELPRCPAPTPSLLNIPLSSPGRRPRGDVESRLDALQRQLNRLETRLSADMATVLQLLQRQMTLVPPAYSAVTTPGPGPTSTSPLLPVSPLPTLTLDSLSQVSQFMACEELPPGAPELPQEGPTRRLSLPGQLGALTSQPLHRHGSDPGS

The test has as its target human ether-à-go-go-related gene (hERG) potassium channel (human, UniProt Q12809). Description: primary screen, population patch clamp on CHO cells stably expressing hERG.
`COc1ccc(NC(=O)N2CCCc3ccccc32)cc1`: the “hERG current change (%, negative = inhibition) at 1uM” value is 6.82%. With `Oc1[nH]c2ccccc2c1N=Nc1ccccc1`, the “hERG current change (%, negative = inhibition) at 1uM” value was 11.2%. The value for `CCOC(=O)C(=O)NCC(c1cccs1)S(=O)(=O)c1ccc(Cl)cc1` (stereo not shown) was 0.903%. Turning to `C=CCN1C(=O)c2ccccc2C1(O)Cc1ccccc1` (stereo not shown), the “hERG current change (%, negative = inhibition) at 1uM” value amounted to 13.7%. The value for `COCCn1c(SCc2csc(-c3ccccc3)n2)nc2ccccc21` was 13%; that for `O=C(Cc1ncc(C(F)(F)F)cc1Cl)NCc1cccnc1` was 11%. The value for `CCn1c(=O)n(CC)c2cc(S(=O)(=O)Nc3cc(C)cc(C)c3C#N)ccc21` was 1.43%; that for `Cc1nc2ccc(Br)cc2c(=O)n1Cc1cccs1` was -7.25%. On to `O=C1NC(=O)N(c2ccc3c(c2)OCO3)C(=O)/C1=C\c1ccc(-c2ccccc2C(=O)O)o1`, for which the “hERG current change (%, negative = inhibition) at 1uM” value came to 11.9%. As for `Cc1nc(N2CCN(c3ccccc3)CC2)nc2c1C(=O)CC(C)C2` (stereo not shown), the “hERG current change (%, negative = inhibition) at 1uM” value was 16.3%. The value for `CCc1ccccc1NC(=O)CCCSc1nc2ccccc2s1` was 3.89%. Turning to `Cc1cccc(C)c1NC(=O)CN(C)C(=O)c1ccc(NS(=O)(=O)c2ccc3[nH]c(=O)[nH]c3c2)cc1`, the “hERG current change (%, negative = inhibition) at 1uM” value is listed as 5.4%.

Consider `COc1ccc(NC(=O)c2ccccc2NC(=O)CN2CCCCCC2)cc1`, for which the “hERG current change (%, negative = inhibition) at 1uM” value came to 11.8%. The value for `COc1cc(-c2nc(-c3ccccc3)c(-c3cccs3)[nH]2)cc(OC)c1OC` was 5.41%. Regarding `O=S(=O)(CCN1CCSCC1)c1ccccc1`, the “hERG current change (%, negative = inhibition) at 1uM” value is listed as 16.2%. The value for `O=c1c(Cc2ccccc2)c(O)nc2n1CCCS2` was 10.2%. As for `CC(=O)Nc1ccc(C(=O)OCC(=O)Nc2ccc(N3CCOCC3)cc2)cc1`, the “hERG current change (%, negative = inhibition) at 1uM” value was 14%. Under `CC(=O)N1CCC2(CC1)CC(=O)c1cc(OCC(=O)N3CCN(C)CC3)ccc1O2` stands 4.45%.

As to `CN(C)C1=NC(=O)/C(=C/c2ccc(-c3ccc(S(N)(=O)=O)cc3)o2)S1`, the “hERG current change (%, negative = inhibition) at 1uM” value is listed as 14.3%.

As to `COc1cccc(CC2(CO)CCCN(Cc3cc4ccccc4[nH]3)C2)c1` (stereo not shown), the “hERG current change (%, negative = inhibition) at 1uM” value is listed as 6.5%. The value for `O=C(/C=C/c1cccc([N+](=O)[O-])c1)N1CCN(c2ccccc2F)CC1` was -1.15%; that for `CN(CCc1cnn(C)c1)Cc1nc(CC2CC2)no1` was -24.3%; that for `c1cncc(Nc2c3ccccc3nc3ccccc23)c1` was -6.9%. The value for `O=C1/C(=C/c2ccccc2)N=C(N2CCOCC2)N1c1cccc(Cl)c1` was 1.65%; that for `CCn1ccnc1CN(C)C(=O)c1ccc(OC2CCN(CCc3ccccc3)CC2)cc1` was 7.17%; that for `O=C(/C=C/c1ccc(F)cc1)c1ccc(N2CCOCC2)cc1` was 14.1%.

Turning to `Cn1cnnc1SCC(=O)Nc1ccc(Br)cc1F`, the “hERG current change (%, negative = inhibition) at 1uM” value is 9.52%. `Cc1ccc(CSc2nnc(-c3ccncc3)n2N)cc1`: the “hERG current change (%, negative = inhibition) at 1uM” value was determined as 9.8%. The value for `COc1ccc(C(=O)Nc2ccnn2C2CCN(Cc3ccccn3)CC2)cc1` was 4.42%; that for `O=C(CCc1ccccc1)NCC1OCCc2ccccc21` (stereo not shown) was 7.14%; that for `CC1CN(S(=O)(=O)c2cccc(C(=O)NCCC3=CCCCC3)c2)CC(C)O1` (stereo not shown) was 0.227%. On to `O=C(c1cccs1)N(Cc1cc2ccccc2[nH]c1=O)c1ccccc1`, for which the “hERG current change (%, negative = inhibition) at 1uM” value is given as -4.14%.

Regarding `COc1cccc(C(=O)N2CCN(Cc3ccccn3)CC2)c1OC.O=C(O)C(=O)O`, the “hERG current change (%, negative = inhibition) at 1uM” value is on record as -2.57%. The value for `CCN(Cc1ccccc1)S(=O)(=O)c1ccc(F)cc1` was 12.5%; that for `COc1ccc2c(CC(=O)OCC(=O)NC(=O)c3cccn3C)coc2c1` was 7.31%. Take `CN(C[C@H](Cc1ccccc1)N(C[C@H](Cc1ccccc1)N(CCc1cc(C(F)(F)F)cc(C(F)(F)F)c1)N=O)N=O)N=O.[Na+]`: the “hERG current change (%, negative = inhibition) at 1uM” value amounted to 10.1%. Under `COc1cccc(CN2CCN(C(=O)c3ccco3)CC2)c1.O=C(O)C(=O)O` stands 6.67%. Under `CCOc1ccc(CN2CCN(C(=O)c3ccccc3)CC2)cc1` stands -1.03%; under `C=C(C)Cn1c(-c2cccs2)n[nH]c1=S`, 5.03%; under `O=C(NC(=O)c1ccc(Cl)cc1)Nc1cc(N2CCCCC2)ncn1`, 9.32%. With `CCN(c1ccc(NC(=O)CSCc2c(C)noc2C)cc1)C(C)C`, the “hERG current change (%, negative = inhibition) at 1uM” value is listed as 6.49%. The value for `COc1ccc(N(CC(=O)Nc2ccc(S(=O)(=O)N3CCOCC3)cc2)S(=O)(=O)c2ccccc2)cc1` was 10.5%; that for `COc1ccc(N2CCN(C(=O)c3cc(-c4cc(OC)ccc4OC)nc4ccccc34)CC2)cc1` was 11.5%.

The values above are taken from publication PMC4336329 (PLoS ONE, 2015).
